# According to PubChem BioAssay AID488969 (Vanderbilt High Throughput Screening Facility, 2010):
# The full ranking holds about 110,000 compounds; the median of “z-score” is about -0.1, and the highest 2% start at about 2. The list shows a part of the results. Activity calls are given as the source filed them.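 The calls were made as follows: active = z-score in the third read window above 3 or below -3; inactive = the rest.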
# Molecular target: Metabotropic glutamate receptor 8 (Rattus norvegicus) (UniProt P70579)
# UniProt P70579, sequence (P70579 whole entry, looked up): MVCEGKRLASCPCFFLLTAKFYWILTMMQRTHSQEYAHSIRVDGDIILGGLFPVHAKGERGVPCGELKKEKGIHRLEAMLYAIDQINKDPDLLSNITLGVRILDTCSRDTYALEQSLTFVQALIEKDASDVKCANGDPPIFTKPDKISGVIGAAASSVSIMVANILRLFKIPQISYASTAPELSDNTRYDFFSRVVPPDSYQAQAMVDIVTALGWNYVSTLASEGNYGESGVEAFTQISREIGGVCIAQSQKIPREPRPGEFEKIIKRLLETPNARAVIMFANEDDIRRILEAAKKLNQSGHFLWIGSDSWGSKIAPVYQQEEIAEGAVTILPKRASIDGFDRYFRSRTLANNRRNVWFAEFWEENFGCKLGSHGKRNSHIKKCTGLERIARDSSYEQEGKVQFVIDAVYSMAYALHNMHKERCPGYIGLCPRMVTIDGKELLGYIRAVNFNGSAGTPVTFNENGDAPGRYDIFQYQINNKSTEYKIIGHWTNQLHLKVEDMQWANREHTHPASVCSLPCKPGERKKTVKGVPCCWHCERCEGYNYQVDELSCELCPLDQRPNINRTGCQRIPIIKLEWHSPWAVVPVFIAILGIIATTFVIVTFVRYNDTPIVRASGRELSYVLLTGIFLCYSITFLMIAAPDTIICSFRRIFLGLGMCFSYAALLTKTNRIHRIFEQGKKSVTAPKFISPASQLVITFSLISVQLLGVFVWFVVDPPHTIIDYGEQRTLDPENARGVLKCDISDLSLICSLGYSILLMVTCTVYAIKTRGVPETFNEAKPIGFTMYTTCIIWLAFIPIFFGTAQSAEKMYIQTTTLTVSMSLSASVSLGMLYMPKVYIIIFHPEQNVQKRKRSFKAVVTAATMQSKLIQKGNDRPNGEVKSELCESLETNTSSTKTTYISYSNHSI
# Assay: mGluR8 Gi/Go-coupled signaling modulation – cell-based, rat, thallium flux, HTS, primary screen (AID 488969)
# Conditions: HEK293 rat mGluR8, GIRK (G protein-gated inwardly rectifying potassium channel) thallium flux, FluoZin2; at 10 µM; stronger effect = higher value; submaximal glutamate (EC20) added with thallium
row,Compound,z-score
1,C=CCSc1nc2sc(-c3ccccc3)cc2c(=O)n1N,0.177
2,NC(=O)CSc1nnc(-c2ccc(S(=O)(=O)N3CCOCC3)cc2)n1CC1CCCO1 (stereo not drawn),0.058
3,COC(=O)C1CCN(C(=O)c2cc3ccccc3oc2=O)CC1,-0.0907
4,CCCN1CCC(=NNC(=O)c2ccc(Br)o2)CC1,0.0167
5,CCSc1nnc(NC(=O)CN(C)S(=O)(=O)c2ccc(F)cc2)s1,-0.521
6,CCCCCCCCCOC(=O)C[n+]1csc(CCO)c1C,0.0302
7,c1ccc2c(c1)CCCN2c1nc2ccccc2n2cnnc12,-0.203
8,Cc1ccc(-c2cc(C(=O)N(C)Cc3cnn(C)c3C)c3cc(Br)ccc3n2)cc1,-0.388
9,Cc1ccc2cccc(NC(=S)NC(=O)c3c(Br)cnn3C)c2n1,0.727
10,Clc1ccc(-c2ccc(/C=N/Nc3cc(N4CCOCC4)nc(N4CCOCC4)n3)o2)cc1,-0.432
11,N#CC1=C(N)SC(N)=C(C#N)C1CCc1ccccc1,active: -3.05
12,COc1cc(C(=O)Nc2sc3c(c2C(=O)NCc2ccco2)CCCC3)cc(OC)c1OC,0.0376
13,CSc1nc2ccccc2cc1/C=C(\C#N)c1ccccc1,0.0152
14,CCCC(=O)N1CCN(c2ccc([N+](=O)[O-])cc2Cl)CC1,0.00135
15,COc1ccc(Cl)cc1S(=O)(=O)Oc1ccc(NC(C)=O)cc1,-0.267
16,Cc1cc2cc(CN(Cc3ccco3)S(=O)(=O)c3c(C)ccc4nsnc34)c(=O)[nH]c2cc1C,-0.0899
17,CS(=O)(=O)c1ccc(N)cc1,0.0786
18,O=C(CSc1nc2ccccc2[nH]1)N1CCN(S(=O)(=O)c2ccc(Cl)cc2)CC1,-0.563
19,COc1cccc(Cn2cnc3c(NS(=O)(=O)c4ccc(Cl)cc4)c(C)c(C)cc32)c1,0.166
20,COc1cnc(-c2ccccn2)nc1Oc1ccc(Cl)cc1,-0.376
21,COc1ccc(S(=O)(=O)Cc2ccc(C(=O)N3CCN(c4ccccc4F)CC3)o2)cc1,-0.0707
22,O=C1CN(C(=O)COc2ncnc3ccccc23)c2ccccc2N1,-0.237
23,CCCCn1c(CCNC(=O)c2cccs2)nc2ccccc21,0.225

row,Compound,z-score
1,Nc1nonc1C(=O)NCCNCc1cc(Br)ccc1OCc1ccccc1F,active: 4.61
2,O=S1(=O)CCC(N=Cc2cc(Br)ccc2O)C1 (stereo not drawn),-0.293
3,CCOC(=O)N1CCC(N2Cc3cccc(C(=O)Nc4cc(F)ccc4F)c3C2=O)CC1,-0.36
4,COc1cccc2cc(C(=O)NC(C)C3CCCO3)c(=O)oc12 (stereo not drawn),0.105
5,COc1ccc(NC(=O)CSc2nnc(Cc3cccn3C)n2-c2ccc(F)cc2)cc1OC,-0.626
6,CCN(CC(=O)NC1CCS(=O)(=O)C1)S(=O)(=O)c1ccc(F)cc1 (stereo not drawn),0.393
7,N#C/C(=C\c1ccc[nH]1)C(=O)NC1CC1,-0.315
8,O=C(OCc1ccc(F)cc1Cl)c1ccccn1,-0.402
9,NNc1nc(N)c2c(n1)-c1ccccc1CC21CCCC1,-0.24
10,COCCn1c(SCCCC(=O)c2ccc(Br)cc2)nnc1-c1ccncc1,-0.169
11,CCn1c(COc2ccccc2C)nnc1SCC(=O)N1CCN(c2ccccc2)CC1,-0.308
12,CCOC(=O)N1CCN(C(=O)c2ccc3c(=O)n(Cc4ccc(Cl)cc4)c(=S)[nH]c3c2)CC1,0.798
13,O=C(O)c1ccc(C(=O)O)c(C(=O)c2ccccc2)c1,0.0505
14,O=C(Cn1ncc2c1-c1ccccc1OC2)Nc1nc2ccccc2s1,0.996
15,O=C(c1cnccn1)N(Cc1ccco1)C1(C(=O)NC2CCCC2)CCCCC1,-0.0484
16,O=C1N=C2SCCN2/C1=C\c1c(Cl)cccc1Cl,-0.354
17,CC(=O)C1=C(C)NC(=O)NC1c1ccccc1OCC(=O)NCCc1ccccc1 (stereo not drawn),-0.246
18,O=C(/C=C/c1ccccc1)NC(=S)Nc1cccnc1,-0.00695
19,COc1cccc(-n2nnc3c(=O)n(CC(=O)NCC4CCCO4)cnc32)c1 (stereo not drawn),-0.23
20,Cc1nc2c(C(=O)NCc3ccc4c(c3)OCO4)c[nH]n2c(=O)c1Cc1ccccc1F,-0.36
21,O=C(Oc1nsnc1N1CCOCC1)N(c1ccccc1)c1ccccc1,-1.85
22,COc1ccc(NC(=O)CN2CCc3ccccc3C2)cc1S(=O)(=O)N1CCOCC1,-0.285
23,Cc1cccc2cc(CN(CCN3CCOCC3)C(=O)Nc3ccccc3F)c(=O)[nH]c12,-0.15

row,Compound,z-score
1,CN(C1CCS(=O)(=O)C1)S(=O)(=O)c1cccc2nsnc12 (stereo not drawn),-0.32
2,CCOP(=O)(OCC)C(NCc1ccccc1)c1ccc(Br)cc1 (stereo not drawn),-0.107
3,CN(C)CCNC=C(C(=O)Nc1ccc(Cl)cc1Cl)C(=O)Nc1ccc(Cl)cc1Cl,-0.172
4,CN(C)c1ccc(C=C(c2nnnn2-c2ccccc2)c2nnnn2-c2ccccc2)cc1,-0.722
5,CCOC(=O)c1cc2c(ccn2C)n1Cc1cc(C)ccc1C,0.246
6,CNc1oc(Cc2cccc3ccccc23)nc1C#N,-0.318
7,Cc1cccc(Oc2ccccc2NC(=O)c2cnccn2)c1,-0.109
8,COc1ccc2nc(NC3=NC(C(=O)Nc4ccc(C)cc4)CC(=O)N3)nc(C)c2c1 (stereo not drawn),-0.114
9,Cc1nnc(SCC(=O)Nc2sccc2C#N)n1Cc1ccccc1,1.4
10,CCn1cc(C(=O)O)c(=O)c2cc(F)c(N3CCN(S(=O)(=O)c4ccc(NC(=O)OC)cc4)CC3)cc21,-0.347
11,O=C(NCCN1C(=O)CSC1=O)C1CC(=O)N(c2ccccc2)C1 (stereo not drawn),-0.251
12,CCSc1nnc(NC(=O)[C@@H](NC(=O)c2ccccc2)C(C)C)s1,-0.168
13,CC(=O)Nc1ccc(S(=O)(=O)NCCSc2ccccn2)cc1,0.153
14,Cc1cc(S(=O)(=O)NCc2ccccc2)ccc1OCC(=O)Nc1cccc([N+](=O)[O-])c1,-0.12
15,O=C(c1coc2ccccc2c1=O)N1CCN(c2cccc(C(F)(F)F)c2)CC1,-0.686
16,CC(=O)[C@@H]1[C@@H]2C(=O)N(Cc3ccccc3)C(=O)[C@@H]2C2c3ccccc3C=CN21 (stereo partly drawn),-0.583
17,CCOc1ccc(C(CCc2ccccc2)NC(=O)c2ccccc2F)cc1OCC (stereo not drawn),-0.49
18,Cc1cc(CSc2ccccc2)ccc1NC(=O)c1ccc(Cl)c([N+](=O)[O-])c1,-0.354
19,CC(=O)n1nc2nc(C)cc(C)c2c1N,0.0296
20,N#Cc1c(N)nc(SCC(=O)NC2CCCCC2)c(C#N)c1-c1ccc(Cl)cc1,0.526
21,CC1CC(C)CN(CCOc2ccc(Cl)cc2Cl)C1 (stereo not drawn),-0.4
22,Cc1ccc(Nc2nc(-c3sc(NC(=O)c4cccc(Cl)c4)nc3C)cs2)cc1,0.086
